Changes are numbered by the printed parent chain.
B1: Antibody 2-7: masked Antibody 2-6: mask CPFPALELC, cleavable peptide VPLSLY; SEQ ID NO: 424 and 421 (protein)
light: ACPFPALELCGGSGGSVPLSLYSGGEIVLTQSPDFQSVTPKEKVTITCSANSALSYMYWYQQKPDQSPKLWVHGTSNLASGVPSRFSGSGSGTDFTLTINSLEAEDAATYYCHHWSNTQWTFGGGTKVEIKRTVAAPSVFIFPPSDEQLKSGTASVVCLLNNFYPREAKVQWKVDNALQSGNSQESVTEQDSKDSTYSLSSTLTLSKADYEKHKVYACEVTHQGLSSPVTKSFNRGEC
heavy: QVQLVQSGAEVKKPGSSVKVSCKASGYTFTNYFMNWVRQAPGQGLEWMGRVDPEQGRADYAEKFKKRVTITADKSTSTAYMELSSLRSEDTAVYYCARRAMDNYGFAYWGQGTLVTVSS[human IgG1 constant region with changes left out here]
B2: Antibody 2-13: masked Antibody 2-6: mask CPFPALELC, cleavable peptide RAAAVKSP; SEQ ID NO: 429 and 421 (protein)
light: ACPFPALELCGGSSPPRAAAVKSPSGGEIVLTQSPDFQSVTPKEKVTITCSANSALSYMYWYQQKPDQSPKLWVHGTSNLASGVPSRFSGSGSGTDFTLTINSLEAEDAATYYCHHWSNTQWTFGGGTKVEIKRTVAAPSVFIFPPSDEQLKSGTASVVCLLNNFYPREAKVQWKVDNALQSGNSQESVTEQDSKDSTYSLSSTLTLSKADYEKHKVYACEVTHQGLSSPVTKSFNRGEC
heavy: QVQLVQSGAEVKKPGSSVKVSCKASGYTFTNYFMNWVRQAPGQGLEWMGRVDPEQGRADYAEKFKKRVTITADKSTSTAYMELSSLRSEDTAVYYCARRAMDNYGFAYWGQGTLVTVSS[human IgG1 constant region with changes left out here]
B3: Antibody 2-11: masked Antibody 2-6: mask CPFPALELC, cleavable peptide GGIGQLTA; SEQ ID NO: 428 and 421 (protein)
light: ACPFPALELCSSPSPSGGGGIGQLTASGGEIVLTQSPDFQSVTPKEKVTITCSANSALSYMYWYQQKPDQSPKLWVHGTSNLASGVPSRFSGSGSGTDFTLTINSLEAEDAATYYCHHWSNTQWTFGGGTKVEIKRTVAAPSVFIFPPSDEQLKSGTASVVCLLNNFYPREAKVQWKVDNALQSGNSQESVTEQDSKDSTYSLSSTLTLSKADYEKHKVYACEVTHQGLSSPVTKSFNRGEC
heavy: QVQLVQSGAEVKKPGSSVKVSCKASGYTFTNYFMNWVRQAPGQGLEWMGRVDPEQGRADYAEKFKKRVTITADKSTSTAYMELSSLRSEDTAVYYCARRAMDNYGFAYWGQGTLVTVSS[human IgG1 constant region with changes left out here]
B4: Antibody 2-12: masked Antibody 2-6: mask CPFPALELC, cleavable peptide KPILFFRL; SEQ ID NO: 431 and 421 (protein)
light: ACPFPALELCGSPGSPKPILFFRLSGGEIVLTQSPDFQSVTPKEKVTITCSANSALSYMYWYQQKPDQSPKLWVHGTSNLASGVPSRFSGSGSGTDFTLTINSLEAEDAATYYCHHWSNTQWTFGGGTKVEIKRTVAAPSVFIFPPSDEQLKSGTASVVCLLNNFYPREAKVQWKVDNALQSGNSQESVTEQDSKDSTYSLSSTLTLSKADYEKHKVYACEVTHQGLSSPVTKSFNRGEC
heavy: QVQLVQSGAEVKKPGSSVKVSCKASGYTFTNYFMNWVRQAPGQGLEWMGRVDPEQGRADYAEKFKKRVTITADKSTSTAYMELSSLRSEDTAVYYCARRAMDNYGFAYWGQGTLVTVSS[human IgG1 constant region with changes left out here]
B5: Antibody 2-8: masked Antibody 2-6: mask CPFPALELC, cleavable peptide MPYDLYHP; SEQ ID NO: 425 and 421 (protein)
light: ACPFPALELCGGPGSSPMPYDLYHPSGGEIVLTQSPDFQSVTPKEKVTITCSANSALSYMYWYQQKPDQSPKLWVHGTSNLASGVPSRFSGSGSGTDFTLTINSLEAEDAATYYCHHWSNTQWTFGGGTKVEIKRTVAAPSVFIFPPSDEQLKSGTASVVCLLNNFYPREAKVQWKVDNALQSGNSQESVTEQDSKDSTYSLSSTLTLSKADYEKHKVYACEVTHQGLSSPVTKSFNRGEC
heavy: QVQLVQSGAEVKKPGSSVKVSCKASGYTFTNYFMNWVRQAPGQGLEWMGRVDPEQGRADYAEKFKKRVTITADKSTSTAYMELSSLRSEDTAVYYCARRAMDNYGFAYWGQGTLVTVSS[human IgG1 constant region with changes left out here]
B6: Antibody 2-9: masked Antibody 2-6: mask CPFPALELC, cleavable peptide HEQLTV; SEQ ID NO: 426 and 421 (protein)
light: B1 light with G14S, G15P, S16P, V17H, P18E, L19Q, S20L, L21T, Y22V
heavy: QVQLVQSGAEVKKPGSSVKVSCKASGYTFTNYFMNWVRQAPGQGLEWMGRVDPEQGRADYAEKFKKRVTITADKSTSTAYMELSSLRSEDTAVYYCARRAMDNYGFAYWGQGTLVTVSS[human IgG1 constant region with changes left out here]

Each molecule was assayed against T1, human CTLA4-Fc (Homo sapiens, UniProt P16410) (assay: Low density antigen binding ELISA, with or without protease activation). Details: Table 7, absence of protease; EC50 masked antibody / EC50 Antibody 2-6.
T1 construct: purchased R&D Systems 7268-CT
Procedure: Masked antibodies were buffer exchanged into MMP cleavage buffer prior to incubation with the protease. For activation, protease (Anaspec, ProsecBio, and R&D Systems) was diluted to 100 ng/μL in MMP cleavage buffer (50 mM Tris pH 8.0, 150 mM NaCl, 10 mM CaCl2). APMA (10 mM in DMSO) was added to a final concentration of 1 mM. The enzyme was incubated at 37° C. for 1 hour. Activated protease was added to the masked antibodies at a ratio of 1:1000 antibody:protease (e.g., 1 ug MMP to 1 mg antibody) or an equal amount of buffer was added to negative control samples. Samples were incubated at 37° C. overnight.
Polystyrene 96-well microplates (Fisher #07-200-591) were coated with 1 μg/mL of human CTLA4-Fc (R&D #7268-CT) per well and stored overnight at 4° C. Plates were washed with 0.05% Tween in TBS (TBS-T), blocked with 1% BSA (Sigma Aldrich #B4287-25G), and washed with TBS-T. Serial dilutions of samples containing anti-CTLA4 antibodies were made in assay buffer (PBS+0.05% Tween+1% BSA), added to plate, and shaken orbitally at 100 RPM at room temperature for one hour. After washing with TBS-T, anti-human Kappa light chain [clone: SB81a]-HRP (Abcam #ab79115) diluted to 1:8000 in assay buffer was applied to the wells and shaken at room temperature for one hour. Plates were washed with TBS-T, HRP substrate (Super Signal Pico Chemiluminescent Substrate, Thermo #37069) was applied to plate, and luminescence was recorded using a spectrophotometer (BioTek). Data was analyzed with GraphPad Prism.
Humanized anti-CTLA4 antibodies were used in low density antigen binding ELISA described in Example 7. For assessing activation of masked activatable forms of the humanized anti-CTLA4 antibodies, recombinant proteases were used as outlined in Example 6.
Serial dilutions of the antibodies were made in assay buffer, added to 96-well microplates coated with human CTLA4-Fc, and shaken at room temperature for one hour. Plates were washed with TBS-T, blocked with BSA, and washed again with TBS-T. The antibodies were added to plate and shaken. After washing, anti-human Kappa light chain (conjugated to HRP) in assay buffer was applied to the wells and shaken at room temperature. Plates were washed again before HRP substrate was added. Luminescence was recorded using a spectrophotometer and data analyzed with GraphPad Prism.
FIG. 10A and FIG. 10B show binding studies with masked and unmasked versions of Antibody 2 in the absence (FIG. 10A) or presence (FIG. 10B) of protease. […] Higher concentrations of antibodies are necessary to show binding as evidenced by the shift to the right of the unmasked Antibody 2-6 and the IgG1 isotype (FIG. 10A). Masked antibodies are considered occluded by masking peptide. The occlusion of each masked antibody is shown in Table 7, below, and is calculated by dividing the EC50 for the masked antibody by the EC50 of the unmasked parental antibody, Antibody 2-6.
Unmasked parental Antibody 2-6 was included as a control and was not exposed to protease. Protease digestion was performed according to the protocol provided in Example 6.
A comparison of the in vitro sensitivity of the cleavable peptide sequences to select proteases is shown as radar plots in FIG. 11A-H. Activation of each antibody by each protease on the radar plot is depicted using a radar plot, where activation is depicted as ranging from 0 (no activation) to 1.0 (full activation). […] The occlusion of each masked antibody is shown in Table 12, below, and is calculated by dividing the EC50 for the masked antibody by the EC50 of the unmasked parental antibody, Antibody 2-6. Binding was conducted according to the protocol provided in Example 7 and Example 8 and proteolytic treatment of the antibodies was conducted to according to the protocol provided in Example 6 and Example 8. A solution of masked anti-CTLA4 antibody (1000 nM) was made in appropriate cleavage buffer. Two antibody samples were aliquoted into two 0.5 mL Eppendorf tubes. […]

Row | Molecule | Occlusion
1 | B1 | 49
2 | B2 | 21
3 | B3 | 51
4 | B4 | 5
5 | B5 | 79
6 | B6 | 62

Same assay, conditions: Table 8, activated by protease; 0 (no activation) to 1.0 (full activation)

Row | Molecule | Activation
7 | B1 | 1.00
8 | B2 | 1.01
9 | B3 | 1.00
10 | B4 | 1.03
11 | B5 | 1.00
12 | B6 | 1.00

Same assay, conditions: Table 13, Protease +

Row | Molecule | Activation | Occlusion
13 | B1 | 1.0 | 0.8

Same assay, conditions: Table 13, Protease −

Row | Molecule | Occlusion
14 | B1 | 49

What follows are molecules tested on peripheral blood mononuclear cells (PBMCs) (assay: not given). Details: after protease treatment (activated).
Assay type: cell-based, human

Row | Molecule | IL-2 production
15 | B1 | at levels similar to the unmasked parental Antibody 2-6
16 | B5 | at levels similar to the unmasked parental Antibody 2-6
17 | B6 | at levels similar to the unmasked parental Antibody 2-6

Same assay, conditions: non-activated (without exposure to protease); compared to isotype control

Row | Molecule | IL-2 production
18 | B1 | did not promote a significant increase in IL-2 production
19 | B2 | did not promote a significant increase in IL-2 production
20 | B3 | did not promote a significant increase in IL-2 production
21 | B4 | significant increase in IL-2 production
22 | B5 | did not promote a significant increase in IL-2 production
23 | B6 | did not promote a significant increase in IL-2 production
